Results on 153 variants are retold here after a collection of fitness landscapes (doi:10.1016/j.celrep.2020.107928).

In all, about 81,000 sequences were measured (“one-hybrid fitness for binding parS DNA”: median about -0.17, highest 2% from about 0.51 on). The list shows a part of the results. A value given as a limit tells only on which side of the number the result lay.

B1: Caulobacter ParB omega fusion; a variant is named by its letters at X, in order, B8GW30 (parent)
chain: MESVVVGEPGMSEGRRGLGRGLSALLGEVDAAPAQAPGEQLGGSREAPIEILQRNPDQPRRTFREEDLEDLSNSIREKGVLQPILVRPSPDTAGEYQIVAGERAWRAAQRAGLKTVPIMVRELDDLAVLEIGIIENVQRADLNVLEEALSYKVLMEKFERTQENIAQTIGKSXSHVANXMRLLXLPDEVQSYLVSGELTAXHARAIAAAADPVALAKQIIEGGLSVRETEALARKAPNLSAGKSKGGRPPRVKDTDTQALESDLSSVLGLDVSIDHRGSTGTLTITYATLEQLDDLCNRLTRGI

Variants of B1 are the subject of this test. The test is described as follows: one-hybrid fitness for binding parS DNA (scaled: cognate 1, non-cognate 0); higher = stronger binding. The note with it: with parS DNA site. In a few lines:
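The reporter was HIS3, with the binding site 19 bp from the promoter, in E. coli USO used for bacterial one-hybrid selection of Caulobacter ParB libraries with four specificity codons randomised. Growth was on M9 lacking histidine, with 0.1 mM IPTG and 5 mM 3-AT, for 48 hours at 37°C. Illumina sequencing covered plasmids before and after selection; three replicate libraries were pooled and variants with under 10 reads dropped. A fitness score is the log change in variant-to-wild-type read ratio, rescaled to the cognate and non-cognate references.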
In the case of MPAP, the “one-hybrid fitness for binding parS DNA” value was not above 0.2.

As to CDNI, the “one-hybrid fitness for binding parS DNA” value was not above 0.2.

As to PQTD, the “one-hybrid fitness for binding parS DNA” value was not above 0.2.

With CNMT, the “one-hybrid fitness for binding parS DNA” value is not above 0.2.

With TGVY, the “one-hybrid fitness for binding parS DNA” value was not above 0.2.

For the variant AKLG, the “one-hybrid fitness for binding parS DNA” value was not above 0.2.

For DKNF, the “one-hybrid fitness for binding parS DNA” value is not above 0.2.

Take RTKR: the “one-hybrid fitness for binding parS DNA” value was not above 0.2.

For TANN, the “one-hybrid fitness for binding parS DNA” value is not above 0.2.

Turning to KLFA, the “one-hybrid fitness for binding parS DNA” value was not above 0.2.

For TGGF, the “one-hybrid fitness for binding parS DNA” value was not above 0.2.

IPCK: the “one-hybrid fitness for binding parS DNA” value is not above 0.2.

On to SPYN, for which the “one-hybrid fitness for binding parS DNA” value is not above 0.2.

Take LFTV: the “one-hybrid fitness for binding parS DNA” value was not above 0.2.

Consider GPDA, for which the “one-hybrid fitness for binding parS DNA” value is not above 0.2.

Turning to TLKY, the “one-hybrid fitness for binding parS DNA” value is not above 0.2.

On to RLSR, for which the “one-hybrid fitness for binding parS DNA” value is not above 0.2.

Take CATR: the “one-hybrid fitness for binding parS DNA” value is not above 0.2.

With AWSR, the “one-hybrid fitness for binding parS DNA” value is not above 0.2.

Regarding YQDC, the “one-hybrid fitness for binding parS DNA” value was not above 0.2.

On to VVQL, for which the “one-hybrid fitness for binding parS DNA” value is not above 0.2.

With DCTY, the “one-hybrid fitness for binding parS DNA” value was not above 0.2.

As for RQQI, the “one-hybrid fitness for binding parS DNA” value was not above 0.2.

On to HPVC, for which the “one-hybrid fitness for binding parS DNA” value was not above 0.2.

With LGSN, the “one-hybrid fitness for binding parS DNA” value was not above 0.2.

With GLLC, the “one-hybrid fitness for binding parS DNA” value is not above 0.2.

With QSIS, the “one-hybrid fitness for binding parS DNA” value is not above 0.2.

Consider PWTF, for which the “one-hybrid fitness for binding parS DNA” value is not above 0.2.

IEFC: the “one-hybrid fitness for binding parS DNA” value was not above 0.2.

On to RHAV, for which the “one-hybrid fitness for binding parS DNA” value was not above 0.2.

GHIE: the “one-hybrid fitness for binding parS DNA” value is not above 0.2.

As for NRPG, the “one-hybrid fitness for binding parS DNA” value is not above 0.2.

For FSLS, the “one-hybrid fitness for binding parS DNA” value was not above 0.2.

As for TKHT, the “one-hybrid fitness for binding parS DNA” value was not above 0.2.

For YRGA, the “one-hybrid fitness for binding parS DNA” value was determined as 0.24.

Turning to SDSI, the “one-hybrid fitness for binding parS DNA” value was not above 0.2.

With SNYG, the “one-hybrid fitness for binding parS DNA” value is not above 0.2.

On to EVVL, for which the “one-hybrid fitness for binding parS DNA” value is not above 0.2.

With FCLT, the “one-hybrid fitness for binding parS DNA” value was not above 0.2.

For ARRG, the “one-hybrid fitness for binding parS DNA” value is not above 0.2.

As to HLSQ, the “one-hybrid fitness for binding parS DNA” value was not above 0.2.

Turning to LCYG, the “one-hybrid fitness for binding parS DNA” value was not above 0.2.

Regarding MWLW, the “one-hybrid fitness for binding parS DNA” value was not above 0.2.

With KGMG, the “one-hybrid fitness for binding parS DNA” value was not above 0.2.

Regarding HVAT, the “one-hybrid fitness for binding parS DNA” value is not above 0.2.

For the variant GDFT, the “one-hybrid fitness for binding parS DNA” value is not above 0.2.

DPID: the “one-hybrid fitness for binding parS DNA” value is not above 0.2.

RSTT: the “one-hybrid fitness for binding parS DNA” value worked out at 0.895.

With PGQI, the “one-hybrid fitness for binding parS DNA” value is not above 0.2.

With PHGH, the “one-hybrid fitness for binding parS DNA” value is not above 0.2.

For the variant ANER, the “one-hybrid fitness for binding parS DNA” value was not above 0.2.

In the case of PNPT, the “one-hybrid fitness for binding parS DNA” value is not above 0.2.

Turning to YDFI, the “one-hybrid fitness for binding parS DNA” value is not above 0.2.

As for FCSR, the “one-hybrid fitness for binding parS DNA” value was not above 0.2.

On to QKGN, for which the “one-hybrid fitness for binding parS DNA” value was not above 0.2.

For the variant SPHW, the “one-hybrid fitness for binding parS DNA” value is not above 0.2.

On to TVKT, for which the “one-hybrid fitness for binding parS DNA” value is not above 0.2.

With QDYL, the “one-hybrid fitness for binding parS DNA” value was not above 0.2.

On to RVNG, for which the “one-hybrid fitness for binding parS DNA” value came out at 0.992.

GLRW: the “one-hybrid fitness for binding parS DNA” value was not above 0.2.

In the case of QPRR, the “one-hybrid fitness for binding parS DNA” value is not above 0.2.

Regarding DNTL, the “one-hybrid fitness for binding parS DNA” value is not above 0.2.

As to SHAI, the “one-hybrid fitness for binding parS DNA” value is not above 0.2.

For the variant DQST, the “one-hybrid fitness for binding parS DNA” value is not above 0.2.

LQGW: the “one-hybrid fitness for binding parS DNA” value was not above 0.2.

Consider LAAA, for which the “one-hybrid fitness for binding parS DNA” value was not above 0.2.

For the variant FTNT, the “one-hybrid fitness for binding parS DNA” value was not above 0.2.

As for KAKC, the “one-hybrid fitness for binding parS DNA” value was not above 0.2.

DRHF: the “one-hybrid fitness for binding parS DNA” value is not above 0.2.

Regarding NNRR, the “one-hybrid fitness for binding parS DNA” value is not above 0.2.

With LLCL, the “one-hybrid fitness for binding parS DNA” value was not above 0.2.

For the variant YVIR, the “one-hybrid fitness for binding parS DNA” value is not above 0.2.

RLKV: the “one-hybrid fitness for binding parS DNA” value was not above 0.2.

Take KVVT: the “one-hybrid fitness for binding parS DNA” value is not above 0.2.

For the variant RLAY, the “one-hybrid fitness for binding parS DNA” value was found to be 0.472.

As for HLGM, the “one-hybrid fitness for binding parS DNA” value was not above 0.2.

Consider TANW, for which the “one-hybrid fitness for binding parS DNA” value was not above 0.2.

With HITC, the “one-hybrid fitness for binding parS DNA” value is not above 0.2.

On to SDVM, for which the “one-hybrid fitness for binding parS DNA” value is not above 0.2.

As for NVNT, the “one-hybrid fitness for binding parS DNA” value is not above 0.2.

Consider KRFN, for which the “one-hybrid fitness for binding parS DNA” value is not above 0.2.

Take QSTL: the “one-hybrid fitness for binding parS DNA” value was not above 0.2.

With YTIC, the “one-hybrid fitness for binding parS DNA” value is not above 0.2.

Turning to GGMV, the “one-hybrid fitness for binding parS DNA” value is not above 0.2.

As for RKSR, the “one-hybrid fitness for binding parS DNA” value is not above 0.2.

Turning to KHIS, the “one-hybrid fitness for binding parS DNA” value is not above 0.2.

In the case of HPHE, the “one-hybrid fitness for binding parS DNA” value was not above 0.2.

Consider IFST, for which the “one-hybrid fitness for binding parS DNA” value was not above 0.2.

Take MKAR: the “one-hybrid fitness for binding parS DNA” value was not above 0.2.

In the case of LSDE, the “one-hybrid fitness for binding parS DNA” value was not above 0.2.

On to LSSS, for which the “one-hybrid fitness for binding parS DNA” value was not above 0.2.

Take IGCV: the “one-hybrid fitness for binding parS DNA” value was not above 0.2.

With SDSV, the “one-hybrid fitness for binding parS DNA” value is not above 0.2.

Regarding TMAN, the “one-hybrid fitness for binding parS DNA” value was not above 0.2.

IPES: the “one-hybrid fitness for binding parS DNA” value is not above 0.2.

Turning to GCEN, the “one-hybrid fitness for binding parS DNA” value was not above 0.2.

Turning to VTTY, the “one-hybrid fitness for binding parS DNA” value was not above 0.2.

As for QQWA, the “one-hybrid fitness for binding parS DNA” value was not above 0.2.

On to CQAV, for which the “one-hybrid fitness for binding parS DNA” value was not above 0.2.

Regarding PPMS, the “one-hybrid fitness for binding parS DNA” value is not above 0.2.

In the case of HTTP, the “one-hybrid fitness for binding parS DNA” value was not above 0.2.

Regarding FLGL, the “one-hybrid fitness for binding parS DNA” value was not above 0.2.

On to YNRY, for which the “one-hybrid fitness for binding parS DNA” value is not above 0.2.

Regarding GMSK, the “one-hybrid fitness for binding parS DNA” value is not above 0.2.

With YYKA, the “one-hybrid fitness for binding parS DNA” value was not above 0.2.

For RNHA, the “one-hybrid fitness for binding parS DNA” value came to 0.438.

For VINT, the “one-hybrid fitness for binding parS DNA” value is not above 0.2.

For the variant YDMG, the “one-hybrid fitness for binding parS DNA” value is not above 0.2.

Turning to TTRE, the “one-hybrid fitness for binding parS DNA” value was not above 0.2.

Turning to WHTW, the “one-hybrid fitness for binding parS DNA” value is not above 0.2.

NRLR: the “one-hybrid fitness for binding parS DNA” value was not above 0.2.

Turning to SVNR, the “one-hybrid fitness for binding parS DNA” value was not above 0.2.

As to TINR, the “one-hybrid fitness for binding parS DNA” value is not above 0.2.

As for SAID, the “one-hybrid fitness for binding parS DNA” value was not above 0.2.

Take PWHV: the “one-hybrid fitness for binding parS DNA” value is not above 0.2.

For CHPS, the “one-hybrid fitness for binding parS DNA” value is not above 0.2.

Take LVWN: the “one-hybrid fitness for binding parS DNA” value was not above 0.2.

With HPQW, the “one-hybrid fitness for binding parS DNA” value was not above 0.2.

Consider FWVS, for which the “one-hybrid fitness for binding parS DNA” value was not above 0.2.

With HIPM, the “one-hybrid fitness for binding parS DNA” value was not above 0.2.

For the variant TKFS, the “one-hybrid fitness for binding parS DNA” value is not above 0.2.

For HPVR, the “one-hybrid fitness for binding parS DNA” value is not above 0.2.

For IFEI, the “one-hybrid fitness for binding parS DNA” value is not above 0.2.

Turning to GMSG, the “one-hybrid fitness for binding parS DNA” value was not above 0.2.

Regarding HDPY, the “one-hybrid fitness for binding parS DNA” value is not above 0.2.

For SFQT, the “one-hybrid fitness for binding parS DNA” value was not above 0.2.

For the variant IRCI, the “one-hybrid fitness for binding parS DNA” value is not above 0.2.

For NAPL, the “one-hybrid fitness for binding parS DNA” value was not above 0.2.

For MHLW, the “one-hybrid fitness for binding parS DNA” value was not above 0.2.

For RYST, the “one-hybrid fitness for binding parS DNA” value stood at 0.862.

Turning to LRYH, the “one-hybrid fitness for binding parS DNA” value is not above 0.2.

As for YAMY, the “one-hybrid fitness for binding parS DNA” value was not above 0.2.

As for NRWY, the “one-hybrid fitness for binding parS DNA” value is not above 0.2.

In the case of PIPA, the “one-hybrid fitness for binding parS DNA” value is not above 0.2.

For IATT, the “one-hybrid fitness for binding parS DNA” value is not above 0.2.

Regarding RKGD, the “one-hybrid fitness for binding parS DNA” value was not above 0.2.

For ELSW, the “one-hybrid fitness for binding parS DNA” value is not above 0.2.

As for EPSS, the “one-hybrid fitness for binding parS DNA” value is not above 0.2.

Turning to WESG, the “one-hybrid fitness for binding parS DNA” value was not above 0.2.

On to QTTS, for which the “one-hybrid fitness for binding parS DNA” value was not above 0.2.

Take MSMS: the “one-hybrid fitness for binding parS DNA” value was not above 0.2.

For WHLD, the “one-hybrid fitness for binding parS DNA” value was not above 0.2.

For the variant MLPF, the “one-hybrid fitness for binding parS DNA” value was not above 0.2.

For TQTF, the “one-hybrid fitness for binding parS DNA” value is not above 0.2.

With AQRI, the “one-hybrid fitness for binding parS DNA” value was not above 0.2.

As for HDCT, the “one-hybrid fitness for binding parS DNA” value was not above 0.2.

As to RVIK, the “one-hybrid fitness for binding parS DNA” value is not above 0.2.

For the variant QLSM, the “one-hybrid fitness for binding parS DNA” value is not above 0.2.

Regarding EFNG, the “one-hybrid fitness for binding parS DNA” value is not above 0.2.

Take SAHR: the “one-hybrid fitness for binding parS DNA” value is not above 0.2.

For FMSQ, the “one-hybrid fitness for binding parS DNA” value came to 0.554.

Consider GGEC, for which the “one-hybrid fitness for binding parS DNA” value is not above 0.2.

In the case of SGAG, the “one-hybrid fitness for binding parS DNA” value was not above 0.2.
